The other results are listed elsewhere or left out. The exact form of the protein is not confirmed.
Target: GST-SBP-ILF3 (Homo sapiens) (UniProt Q12906)
Assay: targeted RNA Bind-n-Seq
Conditions: RBNS binding buffer: 25 mM Tris pH 7.5, 150 mM KCl, 3 mM MgCl2, 0.1% Tween, 0.5 mg/mL BSA, 1 mM DTT; 27 nM protein, 750 pM RNA pool; temperature not stated; high values mean tight binding; sequences stand for … in GGGUAAAAGCGAGGUGAA…CGGGACAAGUAUUAUGGG

| Sequence | binding signal (log2 fold change) |
| --- | --- |
| GGUUGGUGUGUUGGAACCUAACACAUCAGC [gtspaired] | -0.381 |
| GGUGUGUGUGUUGGCGCCUAACACAUACGC [gtspaired] | -0.403 |
| GGUGGUGGUGUUGGUGUCUAACACCGCUAC [gtspaired] | -0.681 |
| GGUUGUGGUGUUGGUCUCUAACACCGCGAC [gtspaired] | -0.488 |
| UUUUUUUUUUGAGAUCGGAACGGUCUUCUA [tttttgagapaired] | 0.118 |
| UUCUCUUCUCCUCCGGGGGAGGGGGAGAGA [ctspaired] | -0.684 |
| UUUUUUUUUUGAGACCGAAGCGGUCUUCUG [tttttgagapaired] | 0.82 |
| UUUUUUUUUUGAGAUGGUGUCUAUCUCCGG [tttttgagapaired] | 0.644 |
| UUUUUUUUUUGAGAACGGGCCGUUCUCCUA [tttttgagapaired] | 0.279 |
| UUCCUCCUUCCUCCGCUGGAGGGAGGGGGA [ctspaired] | -0.243 |
| UUUUUUUUUUGAGAUGGGAGCCAUUUCCAG [tttttgagapaired] | 0.506 |
| UUUUUUUUUUGAGACCGACACGGUCUUCUA [tttttgagapaired] | 0.433 |
| GUGUGUGGUGUUGGACUCUAACACCGCGCG [gtspaired] | -0.542 |
| UUUUUUUUUUGAGACGGAGACCGUUUCCUA [tttttgagapaired] | 0.652 |
| UUUUUUUUUUGAGAACGGGUCGUUCUCCGG [tttttgagapaired] | 0.424 |
| GUGUGUUGUGUUGGACCCUAACACAACGCA [gtspaired] | -0.508 |
| UUUUUUUUUUGAGACGGGGGCUGUCUCCAG [tttttgagapaired] | 1.03 |
| GUGGUUGGUGUUGGCCCCUAACACCAGCCG [gtspaired] | -0.256 |
| UUUUUUUUUUGAGAGCGACACGCUCUCCUA [tttttgagapaired] | -0.148 |
| UUUUUUUUUUGAGACUGUUGCAGUCUCCUG [tttttgagapaired] | 0.542 |
| GGUUGGUGUGUUGGUCUCUAACACAUCGAC [gtspaired] | -0.692 |
| UUUUUUUUUUGAGAGCGUAUCGCUCUUCUA [tttttgagapaired] | 0.213 |
| GGUGGUUGUGUUGGCCUCUAACACAACUAC [gtspaired] | -0.619 |
| UUUUUUUUUUGAGACGGUUUCUGUCUCCAG [tttttgagapaired] | 0.419 |
| GUGUUGUGUGUUGGUUCCUAACACACAGCA [gtspaired] | -0.324 |
| GGUUGUGGUGUUGGCUCCUAACACCGCAGC [gtspaired] | -0.653 |

| Sequence | binding signal (log2 fold change) |
| --- | --- |
| UUUUUUUUUUGAGAGUGGGGCAUUCUUCUA [tttttgagapaired] | 0.479 |
| GUGGUGUGUGUUGGAACCUAACACAUACCA [gtspaired] | -0.291 |
| UUUUUUUUUUGAGAUGGAGUCCAUCUCCUA [tttttgagapaired] | 0.0655 |
| GUGGUUGGUGUUGGAUUCUAACACCGACCG [gtspaired] | -0.586 |
| UUUUUUUUUUGAGAGGGAAUCCCUCUUCUA [tttttgagapaired] | -0.25 |
| GGUGGUUGUGUUGGUACCUAACACAGCUAC [gtspaired] | -0.462 |
| UUUUUUUUUUGAGAACGGAUCGUUCUCCGG [tttttgagapaired] | 0.216 |
| GUUGUGUGUGUUGGUACCUAACACACGCGA [gtspaired] | -0.58 |
| UUUUUUUUUUGAGAGUGGGUCAUUCUCCUA [tttttgagapaired] | 0.316 |
| UUUUUUUUUUGAGAUCGGAGCGAUCUCCAG [tttttgagapaired] | 0.458 |
| UUUUUUUUUUGAGAGUGUAACACUCUCCGG [tttttgagapaired] | -0.0193 |
| UUUUUUUUUUGAGAGGGAUCCCUUCUCCAG [tttttgagapaired] | 0.0953 |
| GGUUGUGGUGUUGGUAUCUAACACCGCAGC [gtspaired] | -0.296 |
| UUUUUUUUUUGAGAGCGGUACGUUCUUCUA [tttttgagapaired] | 0.376 |
| UUUUUUUUUUGAGAUGGGAACCAUCUUCUG [tttttgagapaired] | 0.274 |
| GGUGGUGGUGUUGGUUCCUAACACCAUCGC [gtspaired] | -0.425 |
| UUUUUUUUUUGAGAGCGGUCCGUUCUCCUA [tttttgagapaired] | 0.597 |
| UUUUUUUUUUGAGACGGAGUCCGUUUCCAG [tttttgagapaired] | 0.538 |
| GUGGUGUGUGUUGGUCCCUAACACAUACCG [gtspaired] | -0.672 |
| UUUUUUUUUUGAGACUGGAUCAGUUUCCUG [tttttgagapaired] | 0.698 |
| GUUGGUGGUGUUGGUAUCUAACACCGCCAG [gtspaired] | -0.279 |
| GUGGUGUGUGUUGGUACCUAACACACAUCG [gtspaired] | -0.322 |
| GGUGGUUGUGUUGGUCUCUAACACAAUCGC [gtspaired] | -0.645 |
| UUUUUUUUUUGAGAGCGUGACGCUCUCCUG [tttttgagapaired] | 0.158 |
| UUUUUUUUUUGAGACCGAAGCGGUCUCCAG [tttttgagapaired] | 0.53 |
| UUUUUUUUUUGAGAGCGGGACGUUCUCCAG [tttttgagapaired] | 0.454 |

| Sequence | binding signal (log2 fold change) |
| --- | --- |
| UUUUUUUUUUGAGAGCGAAACGUUCUCCUA [tttttgagapaired] | -0.017 |
| GGUGUUGGUGUUGGCGUCUAACACCAGCGC [gtspaired] | -0.341 |
| GUGGUGUGUGUUGGAGCCUAACACAUACUA [gtspaired] | -0.606 |
| UUUUUUUUUUGAGACUGGGCCAGUCUCCUG [tttttgagapaired] | 0.564 |
| UUUUUUUUUUGAGAGGGCCCCCCUCUCCUG [tttttgagapaired] | 0.818 |
| GGUGGUUGUGUUGGCACCUAACACAGCCGC [gtspaired] | -0.315 |
| UUUUUUUUUUGAGAUGGUUUCCAUUUCCGG [tttttgagapaired] | 0.275 |
| UUUUUUUUUUGAGAUCGUAACGAUCUCCGG [tttttgagapaired] | 0.446 |
| UUUUUUUUUUGAGACGGCUUCCGUCUCCGG [tttttgagapaired] | 0.421 |
| GUGUGGUGUGUUGGAGCCUAACACAUCACA [gtspaired] | -0.17 |
| UUUUUUUUUUGAGAUCGAAACGAUCUCCUA [tttttgagapaired] | 0.0395 |
| UUUUUUUUUUGAGACCGGGACGGUCUUCUG [tttttgagapaired] | 0.737 |
| UUUUUUUUUUGAGACUGUUCCAGUCUCCAG [tttttgagapaired] | 0.367 |
| GUGUUGUGUGUUGGCUUCUAACACACAGCG [gtspaired] | -0.684 |
| UUUUUUUUUUGAGAACGGAGCGUUCUUCUA [tttttgagapaired] | 0.0975 |
| UUUUUUUUUUGAGACGGCAUCCGUCUCCUA [tttttgagapaired] | 0.569 |
| UUUUUUUUUUGAGACUGCAACAGUUUCCUG [tttttgagapaired] | 0.689 |
| UUUUUUUUUUGAGACGGUCCCCGUCUCCUG [tttttgagapaired] | 0.975 |
| UUUUUUUUUUGAGAGGGUAUCCUUCUCCUA [tttttgagapaired] | 0.0439 |
| UUUUUUUUUUGAGACUGGCGCAGUCUCCUA [tttttgagapaired] | 0.44 |
| UUUUUUUUUUGAGAUGGAUCCCAUCUCCUG [tttttgagapaired] | 0.291 |
| UUUUUUUUUUGAGACUGUGGCAGUCUCCGG [tttttgagapaired] | 0.419 |
| UUUUUUUUUUGAGACUGAAGCAGUCUCCAG [tttttgagapaired] | 0.569 |
| GUUGUGUGUGUUGGUACCUAACACACGCAG [gtspaired] | -0.594 |
| UUUUUUUUUUGAGAUGGGACCCAUCUCCUG [tttttgagapaired] | 0.402 |
| UUUUUUUUUUGAGACGGUAGCCGUCUCCGG [tttttgagapaired] | 0.611 |

| Sequence | binding signal (log2 fold change) |
| --- | --- |
| UUUUUUUUUUGAGACGGGAACCGUUUCCUA [tttttgagapaired] | 0.321 |
| UUUUUUUUUUGAGACUGGUUCAGUCUCCAG [tttttgagapaired] | 0.251 |
| UUUUUUUUUUGAGAGCGGUCCGCUCUCCUG [tttttgagapaired] | 0.844 |
| UUUUUUUUUUGAGACUGGAACAGUCUCCUA [tttttgagapaired] | -0.222 |
| UUUUUUUUUUGAGAGGGUGCCCCUCUCCUG [tttttgagapaired] | 0.573 |
| UUUUUUUUUUGAGAUGGCAACCAUUUCCAG [tttttgagapaired] | 0.449 |
| UUUUUUUUUUGAGAUGGCAACCAUCUCCAG [tttttgagapaired] | 0.187 |
| UUUUUUUUUUGAGAACGGGACGUUCUCCUA [tttttgagapaired] | -0.387 |
| UUUUUUUUUUGAGAGCGUAGCGCUCUCCUG [tttttgagapaired] | 0.34 |
| GUUGUGUGUGUUGGUACCUAACACACACGA [gtspaired] | -0.28 |
| UUUUUUUUUUGAGAGGGUCUCCCUCUCCAG [tttttgagapaired] | 0.411 |
| UUUUUUUUUUGAGACGGGAGCCGUUUCCAG [tttttgagapaired] | 0.608 |
| UUUUUUUUUUGAGAUGGGGGCUAUCUCCUA [tttttgagapaired] | 0.784 |
| GUGUGUGGUGUUGGACUCUAACACCACGCG [gtspaired] | -0.105 |
| GUGUGGUGUGUUGGUACCUAACACAUCGCA [gtspaired] | -0.708 |
| GUUGUGUGUGUUGGCGCCUAACACACACAG [gtspaired] | -0.401 |
| UUUUUUUUUUGAGACGGGCACCGUCUCCUA [tttttgagapaired] | 0.243 |
| GUGUGUGGUGUUGGUUCCUAACACCGCGCG [gtspaired] | -0.675 |
| UUUUUUUUUUGAGAUGGAGACUAUCUUCUA [tttttgagapaired] | 0.122 |
| UUUUUUUUUUGAGAACGAGACGUUCUCCAG [tttttgagapaired] | 0.101 |
| UUUUUUUUUUGAGACGGAGACUGUCUUCUA [tttttgagapaired] | 0.879 |
| UUUUUUUUUUGAGACUGAGGCAGUUUCCAG [tttttgagapaired] | 0.606 |
| UUCCUUCUUCCUCCAGUGGAGGGAGAGGGA [ctspaired] | -0.511 |
| UUUUUUUUUUGAGAAGGAUCCCUUCUCCGG [tttttgagapaired] | -0.0228 |

Source: publication PMC5892938
